Measurements: the supplement of paper PMC8728848
This is one part of the list.

Columns and labels:
Test in all cases: glycan array binding signal (z-score within array); higher = stronger binding
Conditions in all cases: glycan notation: IUPAC condensed, linker removed
[1] = biological target: Neu5Ac(a2-3)Gal(b1-4)GlcNAc(b1-6)[Gal(b1-3)]GalNAc
Outline: (§1)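 Arrays were curated from the Consortium for Functional Glycomics database, 3228 in total, and kept only where the protein sequence was available. Binding is expressed as a within-array Z-score. This score was averaged across arrays of the same protein sequence at different concentrations or buffers and across linkers, and negative values can be read as non-binding.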

[2] = biological target: Neu5Ac(a2-3)Gal(b1-4)GlcNAc(b1-6)[Neu5Ac(a2-3)Gal(b1-3)]GalNAc
Outline: as §1

[3] = biological target: Neu5Ac(a2-3)Gal(b1-4)GlcNAc6S
Outline: as §1

[4] = biological target: Neu5Ac(a2-3)Gal(b1-4)[Fuc(a1-3)]GlcNAc
Outline: as §1

[5] = biological target: Neu5Ac(a2-3)Gal(b1-4)[Fuc(a1-3)]GlcNAc(b1-2)Man
Outline: as §1

[6] = biological target: Neu5Ac(a2-3)Gal(b1-4)[Fuc(a1-3)]GlcNAc(b1-3)Gal
Outline: as §1

[7] = biological target: Neu5Ac(a2-3)Gal(b1-4)[Fuc(a1-3)]GlcNAc(b1-3)Gal(b1-4)GlcNAc
Outline: as §1

[8] = biological target: Neu5Ac(a2-3)Gal(b1-4)[Fuc(a1-3)]GlcNAc(b1-3)Gal(b1-4)[Fuc(a1-3)]GlcNAc(b1-3)Gal(b1-4)[Fuc(a1-3)]GlcNAc
Outline: as §1

[9] = biological target: Neu5Ac(a2-3)Gal(b1-4)[Fuc(a1-3)]GlcNAc(b1-3)GalNAc
Outline: as §1

[10] = biological target: Neu5Ac(a2-3)Gal(b1-4)[Fuc(a1-3)]GlcNAc(b1-6)[Gal(b1-3)]GalNAc
Outline: as §1

[11] = biological target: Neu5Ac(a2-3)Gal(b1-4)[Fuc(a1-3)]GlcNAc(b1-6)[Neu5Ac(a2-3)Gal(b1-3)]GalNAc
Outline: as §1

[12] = biological target: Neu5Ac(a2-3)Gal(b1-4)[Fuc(a1-3)]GlcNAc6S
Outline: as §1

[13] = biological target: Neu5Ac(a2-3)Gal6S(b1-4)GlcNAc
Outline: as §1

[14] = biological target: Neu5Ac(a2-3)Gal6S(b1-4)[Fuc(a1-3)]GlcNAc
Outline: as §1

Neu5Ac(a2-3)GalNAc = biological target: Neu5Ac(a2-3)GalNAc
Outline: as §1

[15] = biological target: Neu5Ac(a2-3)GalNAc(b1-4)GlcNAc
Outline: as §1

[16] = biological target: Neu5Ac(a2-3)[GalNAc(b1-4)]Gal(b1-4)Glc
Outline: as §1

[17] = biological target: Neu5Ac(a2-3)[GalNAc(b1-4)]Gal(b1-4)GlcNAc
Outline: as §1

[18] = biological target: Neu5Ac(a2-3)[GalNAc(b1-4)]Gal(b1-4)GlcNAc(b1-3)GalNAc
Outline: as §1

[19] = biological target: Neu5Ac(a2-3)[Neu5Ac(a2-6)]GalNAc
Outline: as §1

Neu5Ac(a2-6)Gal = biological target: Neu5Ac(a2-6)Gal
Outline: as §1

[20] = biological target: Neu5Ac(a2-6)Gal(b1-3)GlcNAc(b1-3)[Gal(b1-4)GlcNAc(b1-6)]Gal(b1-4)Glc
Outline: as §1

Neu5Ac(a2-6)Gal(b1-4)Glc = biological target: Neu5Ac(a2-6)Gal(b1-4)Glc
Outline: as §1

[21] = biological target: Neu5Ac(a2-6)Gal(b1-4)GlcNAc
Outline: as §1

[22] = biological target: Neu5Ac(a2-6)Gal(b1-4)GlcNAc(b1-2)Man
Outline: as §1

[23] = biological target: Neu5Ac(a2-6)Gal(b1-4)GlcNAc(b1-2)Man(a1-3)Man(b1-4)GlcNAc(b1-4)GlcNAc
Outline: as §1

[24] = biological target: Neu5Ac(a2-6)Gal(b1-4)GlcNAc(b1-2)Man(a1-3)[Gal(b1-4)GlcNAc(b1-2)Man(a1-6)]Man(b1-4)GlcNAc(b1-4)GlcNAc
Outline: as §1

[25] = biological target: Neu5Ac(a2-6)Gal(b1-4)GlcNAc(b1-2)Man(a1-3)[GlcNAc(b1-2)Man(a1-6)]Man(b1-4)GlcNAc(b1-4)GlcNAc
Outline: as §1

[26] = biological target: Neu5Ac(a2-6)Gal(b1-4)GlcNAc(b1-2)Man(a1-3)[GlcNAc(b1-4)][Neu5Ac(a2-6)Gal(b1-4)GlcNAc(b1-2)Man(a1-6)]Man(b1-4)GlcNAc(b1-4)GlcNAc
Outline: as §1

[27] = biological target: Neu5Ac(a2-6)Gal(b1-4)GlcNAc(b1-2)Man(a1-3)[Man(a1-6)]Man(b1-4)GlcNAc(b1-4)GlcNAc
Outline: as §1

[28] = biological target: Neu5Ac(a2-6)Gal(b1-4)GlcNAc(b1-2)Man(a1-3)[Neu5Ac(a2-3)Gal(b1-4)GlcNAc(b1-2)Man(a1-6)]Man(b1-4)GlcNAc(b1-4)GlcNAc
Outline: as §1

[29] = biological target: Neu5Ac(a2-6)Gal(b1-4)GlcNAc(b1-2)Man(a1-3)[Neu5Ac(a2-6)Gal(b1-4)GlcNAc(b1-2)Man(a1-6)]Man(b1-4)GlcNAc(b1-4)GlcNAc
Outline: as §1

[30] = biological target: Neu5Ac(a2-6)Gal(b1-4)GlcNAc(b1-2)Man(a1-3)[Neu5Ac(a2-6)Gal(b1-4)GlcNAc(b1-2)Man(a1-6)]Man(b1-4)GlcNAc(b1-4)[Fuc(a1-6)]GlcNAc
Outline: as §1

[31] = biological target: Neu5Ac(a2-6)Gal(b1-4)GlcNAc(b1-2)Man(a1-6)Man(b1-4)GlcNAc(b1-4)GlcNAc
Outline: as §1

[32] = biological target: Neu5Ac(a2-6)Gal(b1-4)GlcNAc(b1-2)Man(a1-6)[Gal(b1-4)GlcNAc(b1-2)Man(a1-3)]Man(b1-4)GlcNAc(b1-4)GlcNAc
Outline: as §1

[33] = biological target: Neu5Ac(a2-6)Gal(b1-4)GlcNAc(b1-2)Man(a1-6)[GlcNAc(b1-2)Man(a1-3)]Man(b1-4)GlcNAc(b1-4)GlcNAc
Outline: as §1

[34] = biological target: Neu5Ac(a2-6)Gal(b1-4)GlcNAc(b1-2)Man(a1-6)[Man(a1-3)]Man(b1-4)GlcNAc(b1-4)GlcNAc
Outline: as §1

[35] = biological target: Neu5Ac(a2-6)Gal(b1-4)GlcNAc(b1-2)[Neu5Ac(a2-6)Gal(b1-4)GlcNAc(b1-4)]Man(a1-3)[GlcNAc(b1-4)][Neu5Ac(a2-6)Gal(b1-4)GlcNAc(b1-2)[Neu5Ac(a2-6)Gal(b1-4)GlcNAc(b1-6)]Man(a1-6)]Man(b1-4)GlcNAc(b1-4)GlcNAc
Outline: as §1

[36] = biological target: Neu5Ac(a2-6)Gal(b1-4)GlcNAc(b1-2)[Neu5Ac(a2-6)Gal(b1-4)GlcNAc(b1-4)]Man(a1-3)[GlcNAc(b1-4)][Neu5Ac(a2-6)Gal(b1-4)GlcNAc(b1-4)Man(a1-6)]Man(b1-4)GlcNAc(b1-4)GlcNAc
Outline: as §1

[37] = biological target: Neu5Ac(a2-6)Gal(b1-4)GlcNAc(b1-2)[Neu5Ac(a2-6)Gal(b1-4)GlcNAc(b1-6)]Man(a1-6)[Neu5Ac(a2-6)Gal(b1-4)GlcNAc(b1-2)Man(a1-3)][GlcNAc(b1-4)]Man(b1-4)GlcNAc(b1-4)GlcNAc
Outline: as §1

[38] = biological target: Neu5Ac(a2-6)Gal(b1-4)GlcNAc(b1-3)Gal(b1-3)GlcNAc
Outline: as §1

[39] = biological target: Neu5Ac(a2-6)Gal(b1-4)GlcNAc(b1-3)Gal(b1-4)GlcNAc
Outline: as §1

[40] = biological target: Neu5Ac(a2-6)Gal(b1-4)GlcNAc(b1-3)Gal(b1-4)GlcNAc(b1-2)Man(a1-3)[Neu5Ac(a2-6)Gal(b1-4)GlcNAc(b1-3)Gal(b1-4)GlcNAc(b1-2)Man(a1-6)]GalNAc
Outline: as §1

[41] = biological target: Neu5Ac(a2-6)Gal(b1-4)GlcNAc(b1-3)Gal(b1-4)GlcNAc(b1-3)Gal(b1-4)GlcNAc
Outline: as §1

[42] = biological target: Neu5Ac(a2-6)Gal(b1-4)GlcNAc(b1-3)Gal(b1-4)GlcNAc(b1-3)Gal(b1-4)GlcNAc(b1-2)Man(a1-3)[Neu5Ac(a2-6)Gal(b1-4)GlcNAc(b1-3)Gal(b1-4)GlcNAc(b1-3)Gal(b1-4)GlcNAc(b1-2)Man(a1-6)]GalNAc
Outline: as §1

B1: Clrb (Mus musculus) (protein)
chain: ITGATKTEQIPVNKTYAACPQNWIGVENKCFYFSEYPSNWTFAQAFCMAQEAQLARFDNQDELNFLMRYKANFDSWIGLHRESSEHPWKWTDNTEYNNTIPIRGEERFAYLNNNGISSTRIYSLRMWICSKLNSYSLHCQTPFFPSGTKHHHHHHHHG
[1]
  glycan array binding signal (z-score): -0.4
[2]
  glycan array binding signal (z-score): -0.304
[3]
  glycan array binding signal (z-score): -0.276
[4]
  glycan array binding signal (z-score): -0.371
[5]
  glycan array binding signal (z-score): -0.421
[6]
  glycan array binding signal (z-score): -0.105
[7]
  glycan array binding signal (z-score): -0.268
[8]
  glycan array binding signal (z-score): -0.171
[9]
  glycan array binding signal (z-score): -0.205
[10]
  glycan array binding signal (z-score): 0.014
[11]
  glycan array binding signal (z-score): -0.149
[12]
  glycan array binding signal (z-score): -0.34
[13]
  glycan array binding signal (z-score): -0.365
[14]
  glycan array binding signal (z-score): -0.241
Neu5Ac(a2-3)GalNAc
  glycan array binding signal (z-score): -0.492
[15]
  glycan array binding signal (z-score): -0.262
[16]
  glycan array binding signal (z-score): -0.329
[17]
  glycan array binding signal (z-score): -0.318
[18]
  glycan array binding signal (z-score): -0.464
[19]
  glycan array binding signal (z-score): -0.311
Neu5Ac(a2-6)Gal
  glycan array binding signal (z-score): -0.171
[20]
  glycan array binding signal (z-score): -0.271
Neu5Ac(a2-6)Gal(b1-4)Glc
  glycan array binding signal (z-score): -0.192
[21]
  glycan array binding signal (z-score): -0.219
[22]
  glycan array binding signal (z-score): -0.19
[23]
  glycan array binding signal (z-score): -0.275
[24]
  glycan array binding signal (z-score): -0.478
[25]
  glycan array binding signal (z-score): -0.472
[26]
  glycan array binding signal (z-score): -0.349
[27]
  glycan array binding signal (z-score): -0.44
[28]
  glycan array binding signal (z-score): -0.434
[29]
  glycan array binding signal (z-score): -0.185
[30]
  glycan array binding signal (z-score): -0.37
[31]
  glycan array binding signal (z-score): -0.393
[32]
  glycan array binding signal (z-score): -0.36
[33]
  glycan array binding signal (z-score): -0.222
[34]
  glycan array binding signal (z-score): -0.503
[35]
  glycan array binding signal (z-score): -0.398
[36]
  glycan array binding signal (z-score): -0.459
[37]
  glycan array binding signal (z-score): -0.03
[38]
  glycan array binding signal (z-score): -0.345
[39]
  glycan array binding signal (z-score): -0.402
[40]
  glycan array binding signal (z-score): -0.362
[41]
  glycan array binding signal (z-score): -0.172
[42]
  glycan array binding signal (z-score): -0.017
